To fix the notation:
B1: LINE1-full (parent)
chain: UACGUAGGUGGUUUUCCCCUGAUAGUGCUAAGGGGGCCUGGAAGUUUGGACUGGGCAGAGCUCAACACAGCGUGGCAAAGUGGCUGUGGCUAGACUGCCUCUCUGGAUUCCUCGUCACUCAGCAGGGCAUCUCUGAGAGAAAUGCC

The source gives no read counts; variants with many changes may rest on few reads.

The values below come from the RNAGym collection of RNA variant scans (doi:10.7554/elife.90254).

Variants of B1 are the subject of this data set. Nature of the data set: self-cleavage, relative activity (ratio to wild type); higher = more cleavage; in vitro, sequencing; the parent is a self-cleaving ribozyme.
In the case of UACGUAGGUGGAUUUCCCCUGAUAGUGCUAAGGGGGCCUGGAAGUUUGGACUGGGCAGAGCUCAACACAGCGUGGCAAAGUGGCUGGGGCUAGACUGCCUCUCUGGAUUCCUCGUCACUCAGCAGGGCAUCUCUGAGAGAAACGCC [U12A U87G U143C], the self-cleavage was 0.

UACGUAGGUGGAUUUCCCCUGAUAGUGCUAAGGGGGCCUGGAAGUUUGGACUGGGCAGAGCACAACACAGCGUGGCAAAGAGGCUGUGGCUAGACUGCCUCUCUGGAUUCCUCGUCACUCAGCAGGGCAUCUCUGAGUGAAAUGCC [U12A U62A U81A A138U]: the self-cleavage amounted to 0.07. Turning to UACGUAGGUGGCUUUCCCCUGUUAGUGCUAAGGAGGCCUGGAAGUAUGGACUGGGCAGAGCUCAACUCAGCGUGGCAAAUUGGCUGUGGCUAGACUGCCUCUCUGGAUUCCUCGUCACUCAGCAGGGCAUCUCUGAGAGAAAUGCC [U12C A22U G34A U46A A67U G80U], the self-cleavage is 0.17. With UACGUAGGUGGAUUUCCCCUGAUAGUGCUAAGGGGGCCUGGAAGUUUGGACUGGGCAGAGCUCAACACAGCGUGGCAAAGUGGCUGUGGCUAGACUGCCCCUCUGGAUUCCUCGUCACUCAGCUGGGCAUCUCUGAGAGAAAUGCC [U12A U100C A124U], the self-cleavage came out at 1.11.

Regarding UACGUAGGUGGCUUUCCCCUGUUAGUGCCAAGGGGGCCUGGAAGUUUGGACUGGGCAGAGCCCAACACAGCGUGGCAAAGUGGCUGUGGCUAGACUGCCUCUCAGGAUUCCUCGUCGCUCAGCAGGGCAUCUCUGAGAGAAAUGCC [U12C A22U U29C U62C U104A A117G], the self-cleavage was found to be 0.92.

On to UACGUAGGUGGCUUUCCCCUGUUAGUGCUAAGGGGGCCUGGAAGUUUGGACUGGGCAGAGCUCAACACAGCGAGGCAAAGUGGCUGUGGCUAGACUGCCUCUCUGGAUUCCUCGUCACUCAGCAGGGCAUCUCUGAGAGAAAUGCC [U12C A22U U73A], for which the self-cleavage was 1.8. Turning to UACGUAGGUGGAUUUCCCCUGAUAGUGCUAAGGGGGCCUGGAAGUUUGGACUGGGCAGAGCCCGACACAGCGUGGCAAAGUGGCUGUGGCUAGACUGCCUCUCUGGAUUCCUCGUCACUCGGCAGGGCAUCUCUGAGAGAAAUGCA [U12A U62C A64G A121G C146A], the self-cleavage was determined as 0. Consider UACGUAGGUGGCUUUCCCCUGGUAGUGCUAAGGGGGGCUGGAAGUUUGGACUGGGCAGAGCUCAACACAGCGUGGCAAAGUGGCUGUGGCUAGACUGCCUCUCUGGAUUCCUCGUCACUCAGCGGGGCAUCUCUGAGAGAAAUACC [U12C A22G C37G A124G G144A], for which the self-cleavage came out at 0.89. With UACGUAGGUGGCUUUCCCCUGAUAGUGCUGAGGGGGCCUGGAAGUUUGGACUGGGCAGAGCUCAACACAGCGUGGCAAAGUGGCUGUGGCUAGACUGCCUCUCUGGAUUCCUCGUCACUCAGCAGGGCAUCUCAGAGAGAAAUGCC [U12C A30G U134A], the self-cleavage came to 1.21. Under UACGUAGGUGGCUUUCCCCUGAUAGUGCUAAGGGGGCCUGGGAGUUUGGACUGGGCUGAGCUCAACACAGCGUGGCAAAGUGGCUGUGGCUAGACUGCCUCUCUGGAUUCCUCGUCACUCAGCAGGGCACCUCUGAGAGAAGUGCC [U12C A42G A57U U130C A142G] stands 0.55; under UACGUAGGUGGCUUUCCCCUGUUAGUGCUAAGGGGGCCUGGAAGCUUGGACUGGGCAGAGCACAACACAGCGUGGCAAAGUGGCUGUGGCUAGACUGCCUCUCUGGAUUCCUCGUCACUCAGCAGGGCAUCUCUGAGAGAAAUGCC [U12C A22U U45C U62A], 0.19; under UACGUAGGUGGCUUUCCCCUGGUAGUGCUAAGGGGGCCUGGAACUUUGGACUGGGCAGAGCUCAACACAGCGUGGCAAAGUGGCUGUGGCUAGACUGCCUCUCUGGAUUCCUCGUCACUCAGCAGGGCAUCUCUGAGAGAAAUGCC [U12C A22G G44C], 1.09. For UACGUAGGUGGCUUUCCCCUGGUAGUGCUAAGGGGGCCUGGAAGUUUGGACUGGGCAGAGCUCAACACAGCGUGGCAAAGUGGCUGUGGCUAGACUGCCUCUCUGGAUUCCUCGUCACUCAGCAGGGCAUCUCUGAGAGGAAUGCC [U12C A22G A140G], the self-cleavage stood at 0.68.

With UACGUAGGUGGAUUUCCCCUGAUAGUGCUAAGGGGGCCUGGAAGUUUGGACUGGGCAGAGCCCAACGCAGCGUGGCAAAGUGGCUGUGGCUAGACUGCCUCUCUGGAUUCCUCGUCACUCAGCAGGGCAUCUCUGAGAGAAAUGCC [U12A U62C A67G], the self-cleavage came to 0.68. Under UACGUAGGUGGCUUUCCCCUGAUAGUGCUAAGGGGGCCUGGUAGUUUGGACUGGGCAGAGCCCAACACAGCGUGGCAAAGUGGCUGUGGCUAGACUGCCUCUCUGGAUUCCUCGUCGCUCAGCAGGGCAUCUCUGAGAGAAAUGCC [U12C A42U U62C A117G] stands 0. Take UACGUAGGUGGCUUUCCCCUGAUAGUGCUAAGGGGGCCUGGACGUUUGGACUGGGCAGAGCUCAACACAGCGUGGCAAGGUGGCUGUGGCUAGACUGCCUCUCUGGAUUCCUCGUCACUCAGCAGGGCAUCUCUGAGAGAAAUGCC [U12C A43C A79G]: the self-cleavage came out at 1.62. Consider UACGUAGGUGGCUUUCCCCUGAUGGUGCUAAGGGGGCCUGGAAGUUUGGACUGGGCAGAGCUCAACACAGCGUGGCAAAGUGGCUGUGGCUAGACUGCCUCUUUGGAUUCCUCGCCACUCAGCAGGGCAUCUCUGAGAGAAGUGCC [U12C A24G C103U U115C A142G], for which the self-cleavage turned out to be 1.89. Regarding UACGUAGGUGGCUUUCCCCUGGUAGGGCUAAGGGGGCCUGGAAGUUUGGACUGGGCAGAGCUCAACACAGCGUGGCAAAGUGGCUGUGGCUAGACUGCCUCUCUGGAUUCCUCGUCACUCAGCAGGGCAUCUCUGAGAGAAAUGCC [U12C A22G U26G], the self-cleavage stood at 0.89. Under UACGUAGGUGGCUUUCCCCUGAUAGUGCUAAGGGGGCCUGGGAGUUUGGUCUGGGCAGAGCUCAACACAGCGUGGCAAAGUGGCUGUGUCUAGACUGCCUCUCUGGAUUCCUCGUCACUCAGCAGGGCAUCUCUGAGAGAAAUGCC [U12C A42G A50U G89U] stands 0.09.
